Assay results from the supplement of paper PMC4967469.
By IC50 is meant the dose at which the fit gives 50% viability; a limit (>, <) means that the fit lies beyond the doses tested. AUC is the area under the same curve over the 256-fold range up to the top dose, as a fraction; the more sensitive the line, the further below 1. For part of these data: A top dose marked as inferred was calculated from the reported fits. For part of these data: Drugs with an entry number were screened twice under separate entries, and the two screens often disagree.

Tests used:
Assay in all cases: Viability of human cancer cell lines after 72 h of drug (GDSC screen)
[1] = compound: CCNC(=O)c1noc(-c2cc(C(C)C)c(O)cc2O)c1-c1ccc(CN2CCOCC2)cc1 [AUY922]; conditions: top dose 0.256 µM; top dose inferred
Protocol: (§1)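 Human cancer cell lines in 384-well plates, medium with 10% serum, drug for 72 h over a 256-fold dose range (nine 2-fold or five 4-fold steps up to the top dose). Adherent lines were fixed and stained with the nucleic acid dye Syto60, suspension lines read with resazurin; signal relative to control wells, capped at 0 and 100%. One two-parameter sigmoid per drug and line, fitted in a mixed model over all curves with the slope shared within a line.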

[2] = compound: Cc1ccc(Nc2cc(-c3cccc(N4C(=O)c5ccccc5C4=O)c3)ncn2)cc1NS(C)(=O)=O [KIN001-270]; conditions: top dose 20 µM; top dose inferred
Protocol: as §1

[3] = compound: CC(C)c1ccccc1Cc1cc(C(=O)Nc2ccc(S(=O)(=O)c3ccccc3C(C)(C)C)cc2)c(O)c(O)c1O [TW-37]; conditions: top dose 5 µM
Protocol: as §1

[4] = compound: Cc1cn(-c2cc(NC(=O)c3ccc(C)c(Nc4nccc(-c5cccnc5)n4)c3)cc(C(F)(F)F)c2)cn1 [Nilotinib]; conditions: top dose 2 µM
Protocol: as §1

[5] = compound: Nc1ccn([C@@H]2O[C@H](CO)[C@@H](O)C2(F)F)c(=O)n1 [Gemcitabine]; conditions: top dose 1.024 µM
Protocol: as §1

[6] = compound: CC(O)(CS(=O)(=O)c1ccc(F)cc1)C(=O)Nc1ccc(C#N)c(C(F)(F)F)c1 [Bicalutamide]; conditions: top dose inferred
Protocol: as §1

[7] = compound: S=C(NCc1ccc2c(c1)OCO2)N1CCN(c2ncnc3c2oc2ccccc23)CC1 [MP470]; conditions: top dose 20 µM; top dose inferred
Protocol: as §1

[8] = compound: C/C(O)=C(\C#N)C(=O)Nc1cc(Br)ccc1Br [LFM-A13]; conditions: top dose 16 µM; top dose inferred
Protocol: as §1

[9] = compound: O=S(=O)(c1ccccc1)N(CC(F)(F)F)c1ccc(C(O)(C(F)(F)F)C(F)(F)F)cc1 [T0901317]; conditions: top dose 10.24 µM; top dose inferred
Protocol: as §1

[10] = top dose 1.024 µM, screen: GDSC drug entry 150
[11] = top dose 10 µM, screen: GDSC drug entry 1502

| Cell Line | AUC [1] | IC50 [1] [nM] | AUC [2] | IC50 [2] [nM] | AUC [3] | IC50 [3] [nM] | AUC [4] | IC50 [4] [nM] | AUC [5] | IC50 [5] [nM] | AUC [6, 10] | IC50 [6, 10] [nM] | AUC [6, 11] | IC50 [6, 11] [nM] | AUC [7] | IC50 [7] [nM] | AUC [8] | IC50 [8] [nM] | AUC [9] | IC50 [9] [nM] |
| --- | --- | --- | --- | --- | --- | --- | --- | --- | --- | --- | --- | --- | --- | --- | --- | --- | --- | --- | --- | --- |
| 42-MG-BA (glioma, adherent) | 0.672 | 50 | 0.969 | > 20000 | 0.552 | 439 | 0.925 | > 2000 | 0.537 | 81.6 | 0.985 | > 1020 | 0.978 | > 10000 | 0.974 | > 20000 | 0.969 | > 16000 | 0.972 | > 10200 |
| 451Lu (melanoma, adherent) | 0.472 | 13.4 | 0.982 | > 20000 | 0.369 | 139 | 0.977 | > 2000 | 0.221 | 10.2 | 0.989 | > 1020 | 0.986 | > 10000 | 0.937 | > 20000 | 0.984 | > 16000 | 0.977 | > 10200 |
| 639-V (bladder, adherent) | 0.333 | 5.93 | 0.977 | > 20000 | 0.615 | 616 | 0.987 | > 2000 | 0.727 | 251 | 0.99 | > 1020 | 0.989 | > 10000 | 0.987 | > 20000 | 0.978 | > 16000 | 0.986 | > 10200 |
| 647-V (bladder, adherent) | 0.618 | 33.8 | 0.986 | > 20000 | 0.447 | 224 | 0.987 | > 2000 | 0.182 | 7.05 | 0.986 | > 1020 | 0.985 | > 10000 | 0.968 | > 20000 | 0.981 | > 16000 | 0.98 | > 10200 |
| 5637 (bladder, adherent) | 0.528 | 19 | 0.984 | > 20000 | 0.601 | 574 | 0.989 | > 2000 | 0.743 | 292 | 0.989 | > 1020 | 0.985 | > 10000 | 0.947 | > 20000 | 0.976 | > 16000 | 0.989 | > 10200 |
| 8305C (thyroid, adherent) | 0.449 | 11.1 | 0.981 | > 20000 | 0.796 | 3200 | 0.982 | > 2000 | 0.335 | 19.2 | 0.971 | > 1020 | 0.966 | > 10000 | 0.979 | > 20000 | 0.968 | > 16000 | 0.982 | > 10200 |
| 8505C (thyroid, adherent) | 0.409 | 8.89 | 0.948 | > 20000 | 0.46 | 241 | 0.934 | > 2000 | 0.142 | 4.44 | 0.985 | > 1020 |  |  | 0.959 | > 20000 | 0.95 | > 16000 | 0.985 | > 10200 |
